Laboratory results from PMC6054188.
Results are given in words; binding and its absence hold for the method and conditions named. For some of these results: Binding seen in cells or lysates may run through a third protein. Some entries that bind do so weakly or less than the wild type. Where a sequence is shown, tags or fusion partners need not be part of it.

Protein sequences, listed by entry. Tags and fused reporters are not part of them.
UniProt Q96524: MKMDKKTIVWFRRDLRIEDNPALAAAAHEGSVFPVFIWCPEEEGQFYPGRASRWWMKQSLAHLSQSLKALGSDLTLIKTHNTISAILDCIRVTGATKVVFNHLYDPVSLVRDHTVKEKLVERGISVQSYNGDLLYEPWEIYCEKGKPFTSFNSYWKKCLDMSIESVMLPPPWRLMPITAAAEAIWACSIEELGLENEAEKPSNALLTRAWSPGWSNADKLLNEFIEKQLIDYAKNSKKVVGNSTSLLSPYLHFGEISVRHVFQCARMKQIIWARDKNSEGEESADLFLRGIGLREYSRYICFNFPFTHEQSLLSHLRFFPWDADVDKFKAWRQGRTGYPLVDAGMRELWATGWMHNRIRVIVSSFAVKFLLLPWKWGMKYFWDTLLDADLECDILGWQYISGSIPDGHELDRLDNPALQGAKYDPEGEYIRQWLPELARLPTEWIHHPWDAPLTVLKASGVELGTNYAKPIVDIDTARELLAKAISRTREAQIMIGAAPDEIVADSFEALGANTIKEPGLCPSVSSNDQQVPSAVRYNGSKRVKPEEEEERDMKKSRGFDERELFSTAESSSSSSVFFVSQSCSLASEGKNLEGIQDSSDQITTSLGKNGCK
UniProt P05804: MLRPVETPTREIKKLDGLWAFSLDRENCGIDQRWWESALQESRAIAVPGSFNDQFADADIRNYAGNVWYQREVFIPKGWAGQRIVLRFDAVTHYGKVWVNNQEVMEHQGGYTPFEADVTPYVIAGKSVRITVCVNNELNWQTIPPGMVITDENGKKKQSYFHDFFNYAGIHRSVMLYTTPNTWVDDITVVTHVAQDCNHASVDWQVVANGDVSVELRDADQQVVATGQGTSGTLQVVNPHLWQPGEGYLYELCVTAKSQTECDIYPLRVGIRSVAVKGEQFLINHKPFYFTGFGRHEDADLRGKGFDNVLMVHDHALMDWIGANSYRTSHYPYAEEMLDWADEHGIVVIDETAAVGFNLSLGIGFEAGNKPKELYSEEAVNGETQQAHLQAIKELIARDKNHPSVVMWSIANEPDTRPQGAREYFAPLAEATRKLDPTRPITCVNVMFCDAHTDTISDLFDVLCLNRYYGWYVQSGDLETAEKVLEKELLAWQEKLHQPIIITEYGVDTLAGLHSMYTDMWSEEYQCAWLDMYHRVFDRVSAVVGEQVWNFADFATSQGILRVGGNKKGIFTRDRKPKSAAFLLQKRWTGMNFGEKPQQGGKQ
UniProt Q43125: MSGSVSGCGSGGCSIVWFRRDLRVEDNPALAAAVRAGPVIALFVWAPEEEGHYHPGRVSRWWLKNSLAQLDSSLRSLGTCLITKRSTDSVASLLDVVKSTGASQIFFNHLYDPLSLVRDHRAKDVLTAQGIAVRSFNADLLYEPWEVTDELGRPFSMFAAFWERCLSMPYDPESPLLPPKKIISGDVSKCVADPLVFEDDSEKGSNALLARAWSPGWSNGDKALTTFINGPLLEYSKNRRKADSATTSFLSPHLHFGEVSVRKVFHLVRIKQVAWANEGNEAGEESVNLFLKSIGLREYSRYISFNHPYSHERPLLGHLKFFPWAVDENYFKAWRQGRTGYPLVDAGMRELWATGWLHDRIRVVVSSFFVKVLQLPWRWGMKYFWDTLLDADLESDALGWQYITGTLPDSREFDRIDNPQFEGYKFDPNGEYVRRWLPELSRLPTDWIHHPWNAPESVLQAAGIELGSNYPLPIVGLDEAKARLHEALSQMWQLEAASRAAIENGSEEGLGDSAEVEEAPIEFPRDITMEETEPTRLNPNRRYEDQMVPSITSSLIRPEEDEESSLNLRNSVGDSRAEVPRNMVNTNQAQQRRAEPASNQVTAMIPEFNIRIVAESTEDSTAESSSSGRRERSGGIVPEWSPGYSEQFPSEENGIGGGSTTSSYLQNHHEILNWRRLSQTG

Legend:
[1] = molecular target: T1, HBI1-Flag (Arabidopsis thaliana) (UniProt Q9ZPW3); test: co-IP; tobacco leaves transiently co-expressing Flag-tagged and YFP-tagged proteins, kept in dim light 3 d; anti-Flag on protein G magnetic beads, TBST, 4 °C, elution with 3×Flag peptide; blots with anti-Flag and anti-GFP
T1 sequence: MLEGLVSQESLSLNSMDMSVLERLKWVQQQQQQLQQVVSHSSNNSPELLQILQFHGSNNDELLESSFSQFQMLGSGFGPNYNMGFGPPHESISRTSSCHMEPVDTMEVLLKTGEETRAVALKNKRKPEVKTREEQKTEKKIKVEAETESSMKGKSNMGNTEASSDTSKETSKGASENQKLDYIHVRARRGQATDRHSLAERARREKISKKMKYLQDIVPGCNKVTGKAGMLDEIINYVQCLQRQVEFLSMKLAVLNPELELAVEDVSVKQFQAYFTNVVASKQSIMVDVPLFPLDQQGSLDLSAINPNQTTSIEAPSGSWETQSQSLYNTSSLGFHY

[2] = molecular target: T2, MBP–HBI1 (Arabidopsis thaliana) (UniProt Q9ZPW3); test: pull-down; semi-in vivo; MBP–HBI1-conjugated beads with extracts of CRY1-OX seedlings kept in darkness 2 d and exposed to blue light (50 μmol m^-2 s^-1) for 3 h; TBST, 4 °C, 30 min; anti-Myc blot; only the target purified
T2 sequence: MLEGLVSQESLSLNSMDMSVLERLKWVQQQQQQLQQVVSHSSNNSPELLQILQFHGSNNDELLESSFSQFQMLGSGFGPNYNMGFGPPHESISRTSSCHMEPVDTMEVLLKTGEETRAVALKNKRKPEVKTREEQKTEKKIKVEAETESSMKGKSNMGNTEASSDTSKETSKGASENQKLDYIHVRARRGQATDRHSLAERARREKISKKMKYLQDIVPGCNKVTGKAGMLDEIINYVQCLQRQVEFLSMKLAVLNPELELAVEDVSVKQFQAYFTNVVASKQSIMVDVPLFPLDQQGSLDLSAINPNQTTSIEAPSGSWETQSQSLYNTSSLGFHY

[3] = molecular target: T2, MBP–HBI1 (Arabidopsis thaliana); test: pull-down; semi-in vivo; MBP–HBI1-conjugated beads with extracts of CRY1-OX seedlings kept in continuing darkness; TBST, 4 °C, 30 min; anti-Myc blot; only the target purified
[4] = molecular target: T2, MBP–HBI1 (Arabidopsis thaliana); test: pull-down; semi-in vivo; MBP–HBI1-conjugated beads with extracts of CRY1-OX seedlings kept in darkness 2 d and exposed to far-red light (10 μmol m^-2 s^-1) for 3 h; TBST, 4 °C, 30 min; anti-Myc blot; only the target purified
[5] = molecular target: T2, MBP–HBI1 (Arabidopsis thaliana); test: pull-down; semi-in vivo; MBP–HBI1-conjugated beads with extracts of CRY1-OX seedlings kept in darkness 2 d and exposed to red light (30 μmol m^-2 s^-1) for 3 h; TBST, 4 °C, 30 min; anti-Myc blot; only the target purified
[6] = molecular target: full-length CRY2 (cryptochrome 2) fused to the GAL4 DNA-binding domain (Arabidopsis thaliana) (UniProt Q96524); test: two-hybrid; GAL4 system, pGBKT7 bait and pGADT7 prey co-transformed into AH109; growth on selective media with 3AT (5 or 10 mM by pair) in continuous 30 μmol m^-2 s^-1 blue light for 3 d
[7] = molecular target: full-length CRY2 (cryptochrome 2) fused to the GAL4 DNA-binding domain (Arabidopsis thaliana) (UniProt Q96524); test: two-hybrid; GAL4 system, pGBKT7 bait and pGADT7 prey co-transformed into AH109; growth on selective media with 3AT (2, 5 or 10 mM by pair) in darkness for 3 d

## GUS–NLS–YFP (from UniProt P05804 1-603) (enzyme)
[1]
  binding: no binding

## Myc-CRY1 (from UniProt Q43125 1-681)
[2]
  binding: binds
[3]
  binding: no binding (condition: seedlings adapted in darkness)
[4]
  binding: no binding (condition: seedlings exposed to far-red light)
[5]
  binding: no binding (condition: seedlings exposed to red light)

B1: full-length HBI1 (homolog of BEE2 interacting with IBH 1) fused to the GAL4 activation domain (protein, UniProt Q9ZPW3 1-337)
chain: MLEGLVSQESLSLNSMDMSVLERLKWVQQQQQQLQQVVSHSSNNSPELLQILQFHGSNNDELLESSFSQFQMLGSGFGPNYNMGFGPPHESISRTSSCHMEPVDTMEVLLKTGEETRAVALKNKRKPEVKTREEQKTEKKIKVEAETESSMKGKSNMGNTEASSDTSKETSKGASENQKLDYIHVRARRGQATDRHSLAERARREKISKKMKYLQDIVPGCNKVTGKAGMLDEIINYVQCLQRQVEFLSMKLAVLNPELELAVEDVSVKQFQAYFTNVVASKQSIMVDVPLFPLDQQGSLDLSAINPNQTTSIEAPSGSWETQSQSLYNTSSLGFHY
[6]
  binding: binds
[7]
  binding: binds
